# Measurements from the supplement of paper PMC8728848.
# The other results are listed elsewhere or left out.
# Tests used:
# Test in all cases: glycan array binding signal (z-score within array); higher = stronger binding
# Settings in all cases: glycan notation: IUPAC condensed, linker removed
# [1] = target: GalNAc(b1-4)GlcNAc(b1-2)Man
# In short: (§1)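 Glycan array data were curated from 3228 arrays in the Consortium for Functional Glycomics database and kept only where the protein sequence was available. Glycan names were converted to IUPAC-condensed notation, and columns mapping to the same glycan were averaged. The binding signal is a within-array Z-score, averaged across arrays of the same protein sequence at different concentrations or buffers and across linkers. Negative Z-scores can be read as non-binding.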
# [2] = target: GalNAc(b1-4)GlcNAc(b1-2)Man(a1-3)[GalNAc(b1-4)GlcNAc(b1-2)Man(a1-6)]Man(b1-4)GlcNAc(b1-4)GlcNAc
# In short: as §1
# [3] = target: GalNAc(b1-4)GlcNAc(b1-3)GalNAc(b1-4)GlcNAc
# In short: as §1
# [4] = target: GalNAc(b1-4)GlcNAc6S
# In short: as §1
# [5] = target: GalNAc(b1-6)GalNAc
# In short: as §1
# [6] = target: GalNAc3S(b1-4)GlcNAc
# In short: as §1
# [7] = target: GalNAc3S(b1-4)GlcNAc3S
# In short: as §1
# [8] = target: GalNAc3S(b1-4)[Fuc(a1-3)]GlcNAc
# In short: as §1
# [9] = target: GalNAc4S6S(b1-4)GlcNAc
# In short: as §1
# [10] = target: GalNAc6S(b1-4)GlcNAc
# In short: as §1
# [11] = target: Glc(a1-4)Glc
# In short: as §1
# [12] = target: Glc(a1-4)Glc(a1-4)Glc(a1-4)Glc
# In short: as §1
# [13] = target: Glc(a1-6)Glc(a1-6)Glc
# In short: as §1
# [14] = target: Glc(a1-6)Glc(a1-6)Glc(a1-6)Glc
# In short: as §1
# [15] = target: Glc(b1-4)Glc
# In short: as §1
# [16] = target: Glc(b1-6)Glc
# In short: as §1
# [17] = target: GlcA(b1-3)Gal
# In short: as §1
# [18] = target: GlcA(b1-3)GlcNAc
# In short: as §1
# [19] = target: GlcA(b1-6)Gal
# In short: as §1
# [20] = target: GlcA3S(b1-3)Gal(b1-4)GlcNAc(b1-2)Man
# In short: as §1
# [21] = target: GlcA3S(b1-3)Gal(b1-4)GlcNAc(b1-3)Gal(b1-4)Glc
# In short: as §1
# [22] = target: GlcNAc(a1-3)Gal(b1-4)GlcNAc
# In short: as §1
# [23] = target: GlcNAc(a1-4)Gal(b1-3)GlcNAc
# In short: as §1
# [24] = target: GlcNAc(a1-4)Gal(b1-4)GalNAc
# In short: as §1
# [25] = target: GlcNAc(a1-4)Gal(b1-4)GlcNAc
# In short: as §1
# [26] = target: GlcNAc(a1-4)Gal(b1-4)GlcNAc(b1-3)Gal(b1-4)Glc
# In short: as §1
# [27] = target: GlcNAc(a1-4)Gal(b1-4)GlcNAc(b1-3)Gal(b1-4)GlcNAc
# In short: as §1
# [28] = target: GlcNAc(a1-4)Gal(b1-4)GlcNAc(b1-3)Gal(b1-4)GlcNAc(b1-3)Gal(b1-4)GlcNAc
# In short: as §1
# [29] = target: GlcNAc(a1-4)Gal(b1-4)GlcNAc(b1-3)Gal(b1-4)[Fuc(a1-3)]GlcNAc(b1-3)Gal(b1-4)[Fuc(a1-3)]GlcNAc
# In short: as §1
# [30] = target: GlcNAc(a1-6)Gal(b1-4)GlcNAc
# In short: as §1
# [31] = target: GlcNAc(b1-2)Gal(b1-3)GalNAc
# In short: as §1
# [32] = target: GlcNAc(b1-2)Man(a1-3)[GlcNAc(b1-2)Man(a1-6)]Man(b1-4)GlcNAc(b1-4)GlcNAc
# In short: as §1
# [33] = target: GlcNAc(b1-2)Man(a1-3)[GlcNAc(b1-2)Man(a1-6)]Man(b1-4)GlcNAc(b1-4)[Fuc(a1-6)]GlcNAc
# In short: as §1
# [34] = target: GlcNAc(b1-2)Man(a1-3)[GlcNAc(b1-4)][GlcNAc(b1-2)Man(a1-6)]Man(b1-4)GlcNAc(b1-4)GlcNAc
# In short: as §1
# [35] = target: GlcNAc(b1-2)Man(a1-3)[GlcNAc(b1-4)][GlcNAc(b1-2)Man(a1-6)]Man(b1-4)GlcNAc(b1-4)[Fuc(a1-6)]GlcNAc
# In short: as §1
# [36] = target: GlcNAc(b1-2)[GlcNAc(b1-4)]Man(a1-3)[GlcNAc(b1-2)Man(a1-6)]Man(b1-4)GlcNAc(b1-4)GlcNAc
# In short: as §1
# [37] = target: GlcNAc(b1-2)[GlcNAc(b1-4)]Man(a1-3)[GlcNAc(b1-4)][GlcNAc(b1-2)Man(a1-6)]Man(b1-4)GlcNAc(b1-4)GlcNAc
# In short: as §1
# [38] = target: GlcNAc(b1-2)[GlcNAc(b1-4)]Man(a1-3)[GlcNAc(b1-4)][GlcNAc(b1-2)[GlcNAc(b1-6)]Man(a1-6)]Man(b1-4)GlcNAc(b1-4)GlcNAc
# In short: as §1
# [39] = target: GlcNAc(b1-2)[GlcNAc(b1-4)]Man(a1-3)[GlcNAc(b1-4)][GlcNAc(b1-2)[GlcNAc(b1-6)]Man(a1-6)]Man(b1-4)GlcNAc(b1-4)[Fuc(a1-6)]GlcNAc
# In short: as §1
# [40] = target: GlcNAc(b1-2)[GlcNAc(b1-6)]Man(a1-6)[GlcNAc(b1-2)Man(a1-3)]Man(b1-4)GlcNAc(b1-4)GlcNAc
# In short: as §1
# [41] = target: GlcNAc(b1-2)[GlcNAc(b1-6)]Man(a1-6)[GlcNAc(b1-2)Man(a1-3)]Man(b1-4)GlcNAc(b1-4)[Fuc(a1-6)]GlcNAc
# In short: as §1
# [42] = target: GlcNAc(b1-2)[GlcNAc(b1-6)]Man(a1-6)[GlcNAc(b1-4)][GlcNAc(b1-2)Man(a1-3)]Man(b1-4)GlcNAc(b1-4)GlcNAc
# In short: as §1
# [43] = target: GlcNAc(b1-3)Fuc
# In short: as §1
# [44] = target: GlcNAc(b1-3)Gal
# In short: as §1
# [45] = target: GlcNAc(b1-3)Gal(b1-3)GalNAc
# In short: as §1
binder,measurement,setting,value
Pwp5 ND (Candida glabrata) (protein) MGSSHHHHHHSSGLVPRGSHMASANPVPLTNVCYFPEEYPRQAGFRAITAGLASTILQGSVDELLNYSGLSSLTTQQTTTTTPNFQLPTLPLPTNVYGLTVVPLYLLVQLQGYFVPPVSGQYTFSLENTNDAAIIFFGNPSAFPCGDLSAWPQASADDITVTDGTFPSRTLFLKAGVAYPMRISYYNSLGSGNLAVSFTDPGGTKRTNWNGYIWRYNSCSTCTYT,glycan array binding signal (z-score),[1],1.93
same,glycan array binding signal (z-score),[2],0.84
same,glycan array binding signal (z-score),[3],-0.5
same,glycan array binding signal (z-score),[4],-0.569
same,glycan array binding signal (z-score),[5],-0.272
same,glycan array binding signal (z-score),[6],1.89
same,glycan array binding signal (z-score),[7],0.072
same,glycan array binding signal (z-score),[8],-0.298
same,glycan array binding signal (z-score),[9],0.436
same,glycan array binding signal (z-score),[10],-0.426
same,glycan array binding signal (z-score),[11],-0.425
same,glycan array binding signal (z-score),[12],-0.622
same,glycan array binding signal (z-score),[13],0.507
same,glycan array binding signal (z-score),[14],-0.62
same,glycan array binding signal (z-score),[15],-0.516
same,glycan array binding signal (z-score),[16],0.018
same,glycan array binding signal (z-score),[17],0.076
same,glycan array binding signal (z-score),[18],0.299
same,glycan array binding signal (z-score),[19],-0.554
same,glycan array binding signal (z-score),[20],-0.035
same,glycan array binding signal (z-score),[21],-0.369
same,glycan array binding signal (z-score),[22],-0.578
same,glycan array binding signal (z-score),[23],-0.557
same,glycan array binding signal (z-score),[24],-0.199
same,glycan array binding signal (z-score),[25],-0.128
same,glycan array binding signal (z-score),[26],0.155
same,glycan array binding signal (z-score),[27],0.138
same,glycan array binding signal (z-score),[28],-0.447
same,glycan array binding signal (z-score),[29],-0.171
same,glycan array binding signal (z-score),[30],-0.376
same,glycan array binding signal (z-score),[31],-0.531
same,glycan array binding signal (z-score),[32],0.222
same,glycan array binding signal (z-score),[33],-0.407
same,glycan array binding signal (z-score),[34],-0.939
same,glycan array binding signal (z-score),[35],-0.687
same,glycan array binding signal (z-score),[36],-0.667
same,glycan array binding signal (z-score),[37],-0.405
same,glycan array binding signal (z-score),[38],-0.579
same,glycan array binding signal (z-score),[39],-0.099
same,glycan array binding signal (z-score),[40],3.15
same,glycan array binding signal (z-score),[41],-0.252
same,glycan array binding signal (z-score),[42],-0.43
same,glycan array binding signal (z-score),[43],-0.494
same,glycan array binding signal (z-score),[44],-0.375
same,glycan array binding signal (z-score),[45],0.032
